In PubChem BioAssay (Tox21):
Several values for one entry are separate records, joined by “and”; a condition that tells them apart may be missing. Equal entries are not always repeated. This list was built around the results that the source calls inconclusive (neither active nor inactive); the mix of calls is not that of the screen. Potencies beside an inconclusive call are fits to weak or partial responses and may not hold up. The source holds several records for some structures; these can differ, active in one and inactive in another. Activity calls are given as the source filed them. Calls follow the shape of the dose curve; as a rule, active = well fitted activation curve with a large enough effect in the repeat runs; inconclusive = weak or mixed curves; inactive = flat fitted curve, though single readings scatter. *1 amine or outer side, *2 acyl side, *3 side chain or, on linkers, in order; H or OH if unused. Where a SMILES comes first, the peptide text is derived from it. Bridges are numbered along the chain shown (N, C = ends). Roman numbers before positions name the chains, in order. [ ]: non-standard residue; d: D form. Actinocin(9to1) = Cc1c2oc3c(C)ccc(C(=O)[*:1])c3nc-2c(C(=O)[*:2])c(N)c1=O; NMeV = CN[C@H](C(=O)O)C(C)C; Sar = CNCC(=O)O

Experiment: A CellTox Green Cytotoxicity Assay to monitor cytotoxicity in HepG2 cells - 32 hour (AID 1224883); also: nearly all actives have a fitted effect of over 50% in size
Conditions: CellTox Green fluorescence; series mostly up to 76.8 µM; cytotoxicity increase: at the top concentration
How it was run: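 Nonlytic assay: viable cells exclude the dye, so fluorescence scales with cell death. HepG2 at 600 cells/well, compounds added after 5 h, signal read across 40 h.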
% is scaled to controls: 0 for no effect and ±100 for the full control effect; potency is read from the fitted curve at half-maximal effect; tags tell the direction and shape of the fitted curve.

SMILES | Potency | cytotoxicity increase
Cc1c2oc3c(C)ccc(C(=O)N[C@@H]4C(=O)N[C@H](C(C)C)C(=O)N5CCC[C@H]5C(=O)N(C)CC(=O)N(C)[C@@H](C(C)C)C(=O)O[C@@H]4C)c3nc-2c(C(=O)N[C@@H]2C(=O)N[C@H](C(C)C)C(=O)N3CCC[C@H]3C(=O)N(C)CC(=O)N(C)[C@@H](C(C)C)C(=O)O[C@@H]2C)c(N)c1=O (I: T[dV]P[Sar][NMeV] / II: T[dV]P[Sar][NMeV]; ester I:1-I:C, II:1-II:C; linker I:N-II:N via Actinocin(9to1)) | inconclusive: 0.0134 µM [activator, full curve, poor fit] | –
CN1C(=O)c2ccccc2C1=O | inconclusive: 54.9 µM [activator, single point] | –
CCOC(=O)c1ccc(I)cc1 | – | inactive: 24.4%
O=C(Nc1cccc(Cl)c1)OCC#CCCl | inconclusive: 54.9 µM [activator, single point] | –
COC(=O)Nc1nc2ccc(S(=O)c3ccccc3)cc2[nH]1 (stereo unspecified) | inactive and active: 952 nM | –
COc1cc(N)c(Cl)cc1C(=O)NC1CCN(CCCOc2ccc(F)cc2)CC1OC (stereo unspecified) | inconclusive: 26.8 µM [activator, single point] | –
O=C=Nc1cccc(C(F)(F)F)c1 | – | inactive: -0.188%
CCOC(=O)c1ccc(C#Cc2ccc3c(c2)C(C)(C)CCS3)nc1 | inconclusive: 0.338 µM [activator, single point] | –
CC(C)c1nc(CN(C)C(=O)N[C@H](C(=O)N[C@@H](Cc2ccccc2)C[C@H](O)[C@H](Cc2ccccc2)NC(=O)OCc2cncs2)C(C)C)cs1 | inconclusive: 26.8 µM [activator, single point] | –
Oc1c(I)cc(Cl)c2cccnc12 | inconclusive: 38.8 µM [activator, partial curve] | –
CC(C)(C)C1CCC(CC2=C(O)c3ccccc3C(=O)C2=O)CC1 (stereo unspecified) | inconclusive: 23.9 µM [activator, single point] | –
C[n+]1c2cc(N)ccc2cc2ccc(N)cc21 (tested in a mixture with another compound) | active: 21.3 µM | –
CN1CCCN(C(c2ccccc2)c2ccc(Cl)cc2)CC1 (stereo unspecified) | active: 21.3 µM | –
O=C(Nc1ccc(S(=O)(=O)N2CCOCC2)cc1)c1cc(Cl)ccc1NS(=O)(=O)c1ccc(Cl)s1 | inconclusive: 26.8 µM [activator, single point] | –
O=c1[nH]sc2cc(Cl)ccc12 | inconclusive: 26.8 µM [activator, partial curve, poor fit] | –
CCCC/C=C/CCCCO | inconclusive: 49 µM [activator, partial curve, poor fit] | –
N=C1N=C(N)c2ccccc21 | inconclusive: 43.6 µM [activator, partial curve, poor fit] | –
CCC(=O)O[C@H]1[C@H](O[C@@H]2[C@@H](C)[C@H](O[C@H]3C[C@@](C)(OC)[C@@H](O)[C@H](C)O3)[C@@H](C)C(=O)O[C@H](CC)[C@@](C)(O)[C@H](O)[C@@H](C)C(=O)[C@H](C)C[C@@]2(C)O)O[C@H](C)C[C@@H]1N(C)C | inconclusive: 32.5 µM [activator, partial curve, poor fit] | –
CCCCC(CC)C(=O)OCCOCCOCCOC(=O)C(CC)CCCC (stereo unspecified) | inactive | –
COc1ccccc1N1CCN(CCCCNC(=O)c2ccc(-c3ccc(C(C)=O)cc3)cc2)CC1 | inconclusive: 30.1 µM [activator, partial curve, poor fit] | –
Cc1ncc(CO)c(CO)c1O | inconclusive: 3.09 µM [activator, partial curve, poor fit] | –
CCN(CC)CCOc1ccc(Cc2ccccc2)cc1 | inconclusive: 26.8 µM [activator, single point] | –
CC(=O)Oc1ccc2c(c1)CC[C@@H]1[C@@H]2CC[C@]2(C)[C@@H](O)CC[C@@H]12 | inconclusive: 26.8 µM [activator, single point] | –
Nc1ccc(O)cc1 | inconclusive: 57.1 µM [activator, single point] | –
O=C1OC(c2ccc(O)cc2)(c2ccc(O)cc2)c2ccccc21 | inconclusive: 61.6 µM [activator, single point] | –
CCCCCCCCCCCCCOS(=O)(=O)O | inconclusive: 54.9 µM [activator, single point] | –
